# Measured values: paper PMC4336329 (PLoS ONE, 2015)
# The whole screen tested about 310,000 compounds, of which about 2,200 (0.71%) showed an effect of 50% or more. The effect is printed as a negative number. The list shows a part of the results.
# Target: human ether-à-go-go-related gene (hERG) potassium channel (human, UniProt Q12809)
# Assay: primary screen, population patch clamp on CHO cells stably expressing hERG
# Sequence of human ether-à-go-go-related gene (hERG) potassium channel (Q12809 whole entry, looked up): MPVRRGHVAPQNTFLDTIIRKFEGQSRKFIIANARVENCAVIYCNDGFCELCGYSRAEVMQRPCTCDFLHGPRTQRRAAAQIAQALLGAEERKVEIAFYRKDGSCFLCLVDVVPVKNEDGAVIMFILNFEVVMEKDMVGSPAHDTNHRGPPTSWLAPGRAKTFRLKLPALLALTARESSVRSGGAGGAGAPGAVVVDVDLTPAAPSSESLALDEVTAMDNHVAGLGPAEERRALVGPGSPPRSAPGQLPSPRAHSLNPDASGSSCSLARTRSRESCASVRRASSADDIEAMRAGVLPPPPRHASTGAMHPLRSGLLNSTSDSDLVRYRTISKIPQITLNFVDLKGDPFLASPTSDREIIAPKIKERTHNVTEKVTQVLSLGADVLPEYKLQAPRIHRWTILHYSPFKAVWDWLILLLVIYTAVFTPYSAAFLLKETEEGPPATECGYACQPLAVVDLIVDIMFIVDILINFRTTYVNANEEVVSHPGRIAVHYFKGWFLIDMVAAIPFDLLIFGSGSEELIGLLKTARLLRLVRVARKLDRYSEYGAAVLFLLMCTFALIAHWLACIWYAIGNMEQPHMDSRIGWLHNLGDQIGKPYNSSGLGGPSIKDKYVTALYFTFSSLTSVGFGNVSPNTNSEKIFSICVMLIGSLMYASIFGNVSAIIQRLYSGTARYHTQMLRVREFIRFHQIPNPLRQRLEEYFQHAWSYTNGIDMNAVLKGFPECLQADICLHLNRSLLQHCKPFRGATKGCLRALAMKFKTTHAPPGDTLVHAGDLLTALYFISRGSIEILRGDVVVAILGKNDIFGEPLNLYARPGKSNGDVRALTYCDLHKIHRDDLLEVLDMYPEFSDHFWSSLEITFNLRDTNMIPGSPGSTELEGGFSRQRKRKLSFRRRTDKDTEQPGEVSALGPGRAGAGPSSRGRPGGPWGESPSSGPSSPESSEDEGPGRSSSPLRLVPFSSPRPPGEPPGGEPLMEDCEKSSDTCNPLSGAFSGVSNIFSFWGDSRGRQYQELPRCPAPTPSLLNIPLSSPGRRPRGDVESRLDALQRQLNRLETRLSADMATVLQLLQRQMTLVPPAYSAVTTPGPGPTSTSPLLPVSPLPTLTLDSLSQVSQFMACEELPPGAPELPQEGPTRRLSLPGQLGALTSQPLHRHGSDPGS
row,SMILES,"hERG current change (%, negative = inhibition) at 1uM [%]"
1,CCC(Sc1ccc(C(=O)O)cc1)C(=O)O (stereo not shown),15.3
2,O=C1CCCC2=C1C(c1ccc(O)c(O)c1)Nc1ccc3ncccc3c12 (stereo not shown),15.4
3,CN(CCNC(=O)C1CCC(=O)N(Cc2ccc(Cl)cc2)C1)CCc1ccccc1 (stereo not shown),-50.5
4,CCOC(=O)c1c(C)[nH]c(C(=O)NNC(=O)c2ccc(Br)cc2)c1C,-3.62
5,COc1ccc(NC(=O)COc2cc(O)c3c(c2)OC(C)(C)CC3=O)cc1,-1.52
6,O=C(CCN1C(=O)S/C(=C/c2ccc(F)cc2)C1=O)Nc1ccc(O)c(C(=O)O)c1,13
7,COc1ccc(NC(=O)NNC(=O)COc2ccc(Cl)cc2C)cc1OC,6.09
8,Cc1cccc(NC(=O)C2CCCN2/C=C/C(=O)C(F)(F)F)c1C (stereo not shown),3.39
9,CC12CCC(=O)N1C(C(=O)Nc1nc(-c3ccccc3)cs1)CS2 (stereo not shown),13.4
10,CC1CN(C(=O)/C=C/c2ccc([N+](=O)[O-])s2)CC(C)O1 (stereo not shown),-24.7
11,CCc1ccccc1NC(=O)C1NC(=O)CC1c1ccccc1 (stereo not shown),1.61
12,Cc1ccc2nc(-c3cccc(NC(=O)c4ccc5c(c4)OCCO5)c3)oc2c1,7.4
13,Cn1nc(-c2ccccc2)cc1NC(=O)CCCC(=O)O,16.4
14,Cn1/c(=N/NC(=O)c2ccccc2Br)sc2ccccc21,12.8
15,C/C(=N\N1C(C)CCCC1C)c1ccccc1O (stereo not shown),7.51
16,O=C(Nc1cc(-c2ccccc2)[nH]n1)c1ccc(Cl)cc1,3.64
17,COc1ccccc1C(=O)COC(=O)/C=C/c1ccccc1,2.69
18,Cc1c(C#N)c2ncn(Cc3ccccn3)c(=O)c2n1-c1ccccc1,-0.997
19,COC(=O)C1=C(C)N(Cc2ccc(OC)cc2)C(=O)C1,16.1
20,O=C(c1ccccc1)c1ccccc1NC(=O)C1CCCN1Cc1ccccc1 (stereo not shown),15.1
21,CC(=O)N1CCN(S(=O)(=O)c2ccc(S(=O)(=O)NC3CC3)cc2)CC1,-2.23
22,CCOc1ccc(NC(=S)NC(=O)c2c(Cl)c(C)nn2C)c([N+](=O)[O-])c1,6.94
23,CC1(C)COCN1S(=O)(=O)c1ccc(C(=O)Nc2nnc(-c3ccc(Cl)s3)o2)cc1,5.31
24,O=S(=O)(c1ccccc1)c1ccc(NCc2ccco2)cc1,-5.31
25,COc1ccc(C(=O)NCC(c2ccco2)N2CCc3ccccc32)cc1 (stereo not shown),-0.333
26,CC1Cc2ccccc2N1C(=O)CSc1nc(-c2ccccc2)cs1 (stereo not shown),11.8
27,COc1ccc(N2CS(=O)(=O)/C(=C/N(C)C)C2=O)cc1,-1.63
28,Cc1ccc(-c2[nH]nc3c2C(c2ccsc2)C(C#N)=C(N)O3)cc1 (stereo not shown),-12.5

row,SMILES,"hERG current change (%, negative = inhibition) at 1uM [%]"
1,O=C(O)CSC1=NC(=Nc2ccc(Cl)cc2)C2(CCCCC2)N1c1cccc(C(=O)O)c1,6.13
2,Cc1ccc(C)c(NC(=O)COC(=O)c2ccc(S(=O)(=O)N3CCCCC3)cc2)c1,-1.78
3,O=C(CCN1CCCO1)N1CCCC(N2CCN(c3ccccc3F)CC2)C1 (stereo not shown),11.7
4,C=CCn1c(SCc2nc3ccccc3c(=O)[nH]2)nnc1-c1cc2cc(Cl)ccc2o1,5.73
5,C=CCNC(=O)c1cc(Cl)ccn1,8.34
6,Cc1cc(=O)[nH]c(-c2ccccc2OC(F)(F)F)n1,12.5
7,Cc1ccc(N2CC(C(=O)OCC(=O)NNC(=O)c3ccccc3)CC2=O)cc1 (stereo not shown),6.36
8,O=c1c2cc(NC(=S)NCc3cccnc3)ccc2nc2n1CCCCC2,4.21
9,COc1ccc(NC(=O)CC2Nc3ccccc3NC2=O)c([N+](=O)[O-])c1 (stereo not shown),0.151
10,O=c1[nH]c(/C=C/c2ccc(Cl)cc2Cl)c([N+](=O)[O-])c(=O)[nH]1,13.9
11,CCCCN(C(=O)CSCC(=O)Nc1cccc(C)c1)c1c(N)n(Cc2ccccc2)c(=O)[nH]c1=O,3.45
12,Cn1ccc(C(=O)N/N=C/c2cccnc2)n1,19.3
13,Cc1ccc(-c2nn3c(-c4ccco4)nnc3c3ccccc23)cc1S(=O)(=O)NCC1CCCO1 (stereo not shown),-0.48
14,CCCN(CC(=O)Nc1ccccc1C)C(=O)/C=C/c1cccs1,4.09
15,CCOc1ncccc1C(=O)OCC(=O)c1ccc[nH]1,9.14
16,COc1ccc(NC(=S)N/N=C2/CCCc3c(C)cc(C)cc32)cc1,8.01
17,CCCCOc1ccc(N(CC(=O)NC2CCCCC2)C(=O)CCC(=O)Nc2ccccn2)cc1,15.5
18,COc1ccc2[nH]c3c(=O)n(N)c(=O)[nH]c3c2c1,4.36
19,COCCOC(=O)c1c(C)oc2ccc(NS(=O)(=O)c3ccc(C(=O)O)cc3)cc12,13.5
20,COc1cccc(OCC(O)CNC(=O)c2oc3c(C)c(C)ccc3c2C)c1 (stereo not shown),3.01
21,Cc1cccc(N(CC(=O)N/N=C/c2ccccc2C(=O)O)S(C)(=O)=O)c1C,-5.58
22,CCC(C)NC(=O)CSc1nc2ccccc2c(=O)n1CCCC(=O)NCC1CCCO1 (stereo not shown),7.49
23,COc1ccc(N(CC(=O)Nc2cccc(C)c2C)S(=O)(=O)c2c(C)n[nH]c2C)cc1,7.73
24,COC1CCN(C(=O)c2ccc3oc(Cc4ccc(Cl)cc4)nc3c2)CC1,9.79
25,CCC(Sc1nc(N)c(NC(=O)c2ccc(OC)cc2)c(=O)[nH]1)C(=O)O (stereo not shown),2.21
26,C=CCSc1nnc(NC(=O)COc2ccc3ccccc3c2)s1,13.8
27,CCn1nc(C(=O)NCC(c2cccs2)N2CCOCC2)c2ccccc2c1=O (stereo not shown),8.33
